Where “and” joins values, the source holds several entries; their conditions need not be identical. Equal entries are not always repeated. The inconclusive results got no clear call from the source; some entries with a clear call stand among them for comparison. For some of these results: Where the call is inconclusive, the potency comes from a doubtful curve fit. For some of these results: “Side channel” marks fits to a control or component signal instead of the main read-out. Calls of active or inactive are those of the source. Unless noted, calls follow the shape of the dose curve; as a rule, active = well fitted curve in the direction sought with a large enough effect; inconclusive = small, poorly fitted or top-dose-only effect, or another doubt; inactive = no such curve, though single readings can be large; an effect the other way counts as inactive or inconclusive.
Experiments:
[1] = Nrf2 qHTS screen for inhibitors: Validation (AID 493153; active = well fitted inhibition curve with a large enough effect in the main read-out, with a control signal flat, not every such curve was filed as active; inconclusive = small, poorly fitted or top-dose-only effect, or effect the other way, or a change in a side signal; inactive = no such curve, though single readings can be large or run the other way; also: potency is read from the fitted curve at half-maximal effect); conditions: A549 ARE-Fluc reporter, luciferase luminescence, 18-24 h; series mostly up to 46.1 µM
Method in brief: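 Concentration-response on A549 ARE_Fluc reporter cells exposed 18-24 h at 37 C, 5% CO2. Cytotoxicity read first by CellTiter-Fluor fluorescence (Ex 405/Em 525), then Nrf2 inhibition by BugLite luminescence after 15 min.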

[2] = molecular target: Peptidyl-prolyl cis-trans isomerase NIMA-interacting 1 (Homo sapiens) (UniProt Q13526); assay: qHTS Validation Assay to Find Inhibitors of Pin1 (AID 504536; active = well fitted inhibition curve with a large enough effect in the polarisation, with a control signal flat, not every such curve was filed as active; inconclusive = small, poorly fitted or top-dose-only effect, or effect the other way; the % refers to the polarisation; also: potency is read from the fitted curve at half-maximal effect); conditions: Pin1 fluorescence polarization peptide binding assay; series mostly up to 57.5 µM
Method in brief: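 Fluorescence polarization competition: compounds (titration) displace HiFluor-488-labeled Pin1-1b peptide from Pin1 (0.3 uM final) in pH 7.5 HEPES buffer with DTT, 10 min at room temperature; %Activity normalized to no-enzyme wells, curves fitted.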

[3] = molecular target: Galactokinase (Homo sapiens) (UniProt P51570); assay: qHTS Validation Assay for Inhibitors of Human Galactokinase (GALK) (AID 493189); conditions: purified human GALK enzyme activity, qHTS 7-point titration; series mostly up to 57.5 µM
Method in brief: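 Compounds were pin-transferred into ATP buffer, then GALK-galactose mix was added (final 5 nM enzyme, 100 uM galactose, 35 uM ATP). After 1 h at room temperature, remaining ATP was measured luminescently.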

[4] = molecular target: Ubiquitin carboxyl-terminal hydrolase 1 (Homo sapiens) (UniProt O94782); assay: Inhibitors of USP1/UAF1: Pilot qHTS (AID 504865); conditions: purified USP1/UAF1, Ub-rhodamine cleavage fluorescence; series mostly up to 114 µM; also: potency is read from the fitted curve at half-maximal effect;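 also: rhodamine fluorescence freed from ubiquitin-rhodamine substrate followed over time; nearly all actives have a fitted effect of over 35% in size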
Method in brief: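 Kinetic fluorescence assay: 1nM USP1/UAF1, 15 min compound preincubation, then 150nM Ub-Rho; 480/540 nm.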

[5] = molecular target: Phosphoglycerate kinase, glycosomal (Trypanosoma brucei brucei) (UniProt P07378); assay: qHTS Validation Assay to Find Inhibitors of Phosphoglycerate Kinase (AID 504547); conditions: enzymatic PGK inhibition, coupled luminescence read-out; series mostly up to 57.5 µM; also: potency is read from the fitted curve at half-maximal effect
Method in brief: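 Luminescence end-point (Kinase-Glo Plus, 10 min) after a 60 min room-temperature coupled reaction. GAPDH at 100nM final supplies 1,3-BPG to PGK. Buffer: 100mM TEA pH 7.6, 5mM MgCl2, 0.01% Tween-20. Wells lacking PGK served as controls.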

[6] = qHTS for Inhibitors of ATXN expression: Validation (AID 588378); conditions: cell-based ATXN2 expression reporter assay, luminescence; series mostly up to 57.1 µM; also: nearly all actives have a fitted effect of over 75% in size
Method in brief: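 Validation of ATXN2 expression inhibitors uses a cell-based luciferase fusion reporter in HEK293 cells, with 24 h compound exposure and paired viability (fluorescence) and reporter (luminescence) end-point reads.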

[7] = molecular target: ATPase family AAA domain-containing protein 5 (Homo sapiens) (UniProt Q96QE3); assay: Validation screen for small molecules that inhibit ELG1-dependent DNA repair in human embryonic kidney (HEK293T) cells expressing luciferase-tagged ELG1 (AID 493107); conditions: HEK293T ELG1-luciferase level, luminescence, 5-fluorouridine co-treatment, 16 h; series mostly up to 46.1 µM; also: nearly all actives have a fitted effect of over 70% in size; also: potency is read from the fitted curve at half-maximal effect
Method in brief: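 Luciferase read-out, ONE-Glo, 30 min at room temperature, follows 16 h co-exposure at 37 C of compound and the DNA-damaging agent 5-fluorouridine. Cells: HEK293T with ELG1-luciferase fusion, 2,000 per well, DMSO as vehicle.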

[8] = Validation screen for small molecules that induce DNA re-replication in SW480 colon adenocarcinoma cells (AID 504364); conditions: DNA re-replication phenotype (high-content imaging); series mostly up to 46.1 µM; also: potency is read from the fitted curve at half-maximal effect
Method in brief: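 Image-based DNA content read-out: Hoechst stain 40 min, total nuclear fluorescence intensity (ex 405 nm, em 500-530 nm) after 48 h compound exposure of 250 SW480 cells/well at 37 C, 5% CO2, versus DMSO vehicle.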

[9] = Inducers of the Endoplasmic Reticulum Stress Response (ERSR) in human glioma: Validation (AID 504836); conditions: human glioma cells, ER stress response reporter; series mostly up to 38.3 µM
Method in brief: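 ERSR induction read as luciferase luminescence (Bright-Glo, 10 min at room temperature) in stably transfected human U87-MG glioma cells exposed to compounds for 16 h, using GRP78 as sensor.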

[10] = qHTS for Inhibitors of ATXN expression: Validation of Cytotoxic Assay (AID 588349); conditions: cytotoxicity counter-screen for ATXN expression inhibitors, cell viability; series mostly up to 57.1 µM; also: potency is read from the fitted curve at half-maximal effect
Method in brief: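 Cytotoxicity counter-screen: ATP-based luminescent viability (CellTiter Glo) after 72 hr exposure of HEK293 cells to a compound titration at 37 degrees C.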

[11] = molecular target: phosphoglycerate mutase (Leishmania major) (UniProt Q4Q090); assay: qHTS Validation Assay to Find Inhibitors of Phosphoglycerate Mutase (AID 504548); conditions: biochemical enzyme activity; Potency: inhibition qHTS; series mostly up to 57.5 µM; also: potency is read from the fitted curve at half-maximal effect
Method in brief: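 Inhibition of L. major PGAM was assessed by Kinase-GloPlus luminescence following a 45-minute room-temperature reaction with enzyme at 1.25nM final.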
Tags tell the direction and shape of the fitted curve or compound fluorescence and quenching.

Sequence of UniProt Q96QE3 (Q96QE3 whole entry, looked up, the tested form may be a part): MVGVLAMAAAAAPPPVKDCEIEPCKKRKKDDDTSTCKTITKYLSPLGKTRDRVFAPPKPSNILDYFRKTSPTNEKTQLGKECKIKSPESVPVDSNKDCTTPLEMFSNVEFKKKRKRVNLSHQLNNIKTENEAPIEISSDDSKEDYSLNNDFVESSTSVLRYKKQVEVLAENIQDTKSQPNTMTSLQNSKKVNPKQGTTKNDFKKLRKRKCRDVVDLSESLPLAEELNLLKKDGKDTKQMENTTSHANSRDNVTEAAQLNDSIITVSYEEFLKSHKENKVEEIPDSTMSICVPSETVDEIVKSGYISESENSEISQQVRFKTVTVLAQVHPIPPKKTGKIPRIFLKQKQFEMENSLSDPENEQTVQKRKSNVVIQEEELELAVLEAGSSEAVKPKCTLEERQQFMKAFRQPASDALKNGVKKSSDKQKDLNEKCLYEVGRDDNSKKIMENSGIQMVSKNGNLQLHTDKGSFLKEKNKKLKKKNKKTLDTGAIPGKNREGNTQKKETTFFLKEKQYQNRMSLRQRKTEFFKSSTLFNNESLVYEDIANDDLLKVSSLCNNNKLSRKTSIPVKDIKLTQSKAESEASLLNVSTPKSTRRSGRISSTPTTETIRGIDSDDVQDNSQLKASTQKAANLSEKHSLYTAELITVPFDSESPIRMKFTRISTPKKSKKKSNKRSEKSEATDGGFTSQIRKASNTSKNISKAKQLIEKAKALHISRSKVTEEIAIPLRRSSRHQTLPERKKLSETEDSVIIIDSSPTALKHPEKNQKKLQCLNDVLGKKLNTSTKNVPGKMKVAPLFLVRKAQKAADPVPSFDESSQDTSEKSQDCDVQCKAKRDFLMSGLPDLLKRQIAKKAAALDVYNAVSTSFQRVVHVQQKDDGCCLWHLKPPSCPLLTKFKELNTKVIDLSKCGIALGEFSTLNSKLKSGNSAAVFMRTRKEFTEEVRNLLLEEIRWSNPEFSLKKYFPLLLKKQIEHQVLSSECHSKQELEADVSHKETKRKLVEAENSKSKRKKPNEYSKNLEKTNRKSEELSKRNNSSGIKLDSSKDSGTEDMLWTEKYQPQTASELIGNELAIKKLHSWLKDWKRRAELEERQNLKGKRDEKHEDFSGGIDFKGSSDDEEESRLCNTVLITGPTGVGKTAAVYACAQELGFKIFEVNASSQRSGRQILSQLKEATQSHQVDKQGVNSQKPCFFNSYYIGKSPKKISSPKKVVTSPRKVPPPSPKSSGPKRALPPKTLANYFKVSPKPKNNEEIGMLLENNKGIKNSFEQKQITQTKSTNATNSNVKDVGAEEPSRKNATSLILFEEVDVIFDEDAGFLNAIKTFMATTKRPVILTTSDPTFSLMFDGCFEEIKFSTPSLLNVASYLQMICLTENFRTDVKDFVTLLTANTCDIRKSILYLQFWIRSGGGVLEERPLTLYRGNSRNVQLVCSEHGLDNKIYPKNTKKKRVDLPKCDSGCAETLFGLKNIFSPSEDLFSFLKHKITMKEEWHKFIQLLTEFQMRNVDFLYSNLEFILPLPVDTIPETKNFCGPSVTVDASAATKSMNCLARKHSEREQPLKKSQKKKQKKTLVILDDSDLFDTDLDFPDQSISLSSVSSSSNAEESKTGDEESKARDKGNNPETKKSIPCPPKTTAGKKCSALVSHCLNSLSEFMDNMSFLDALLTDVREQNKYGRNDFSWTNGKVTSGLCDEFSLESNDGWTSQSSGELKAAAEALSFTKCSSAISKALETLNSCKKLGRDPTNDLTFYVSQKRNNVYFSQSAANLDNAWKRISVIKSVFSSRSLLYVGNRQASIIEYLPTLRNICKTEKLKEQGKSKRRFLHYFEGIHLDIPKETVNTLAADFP
Sequence of UniProt O94782 (O94782 whole entry, looked up): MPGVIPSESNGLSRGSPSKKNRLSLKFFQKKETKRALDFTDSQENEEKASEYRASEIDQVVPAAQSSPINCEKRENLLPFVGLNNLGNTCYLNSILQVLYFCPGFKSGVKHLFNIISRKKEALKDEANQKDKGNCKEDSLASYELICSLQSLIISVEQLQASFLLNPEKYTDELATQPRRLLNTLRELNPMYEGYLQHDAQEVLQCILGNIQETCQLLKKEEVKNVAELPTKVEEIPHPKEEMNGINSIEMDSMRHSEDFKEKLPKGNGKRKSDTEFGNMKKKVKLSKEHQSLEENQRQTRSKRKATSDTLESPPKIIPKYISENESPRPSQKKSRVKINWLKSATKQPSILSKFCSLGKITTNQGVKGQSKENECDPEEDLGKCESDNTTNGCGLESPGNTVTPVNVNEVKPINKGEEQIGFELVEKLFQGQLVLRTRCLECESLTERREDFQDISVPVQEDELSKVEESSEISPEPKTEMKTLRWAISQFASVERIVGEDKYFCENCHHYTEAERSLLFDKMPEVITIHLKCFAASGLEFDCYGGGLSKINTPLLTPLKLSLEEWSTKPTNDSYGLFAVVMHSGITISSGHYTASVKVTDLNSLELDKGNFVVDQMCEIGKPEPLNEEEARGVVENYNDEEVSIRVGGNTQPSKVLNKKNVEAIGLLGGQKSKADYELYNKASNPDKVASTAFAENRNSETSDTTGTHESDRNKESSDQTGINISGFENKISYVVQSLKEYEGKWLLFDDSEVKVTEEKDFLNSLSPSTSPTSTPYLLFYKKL
Sequence of UniProt Q13526 (Q13526 whole entry, looked up): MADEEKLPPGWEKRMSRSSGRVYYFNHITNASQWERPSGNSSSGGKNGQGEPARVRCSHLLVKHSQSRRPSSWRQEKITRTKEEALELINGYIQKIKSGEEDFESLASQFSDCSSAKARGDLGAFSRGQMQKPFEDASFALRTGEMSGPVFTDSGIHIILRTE
Sequence of UniProt P51570 (P51570 whole entry, looked up): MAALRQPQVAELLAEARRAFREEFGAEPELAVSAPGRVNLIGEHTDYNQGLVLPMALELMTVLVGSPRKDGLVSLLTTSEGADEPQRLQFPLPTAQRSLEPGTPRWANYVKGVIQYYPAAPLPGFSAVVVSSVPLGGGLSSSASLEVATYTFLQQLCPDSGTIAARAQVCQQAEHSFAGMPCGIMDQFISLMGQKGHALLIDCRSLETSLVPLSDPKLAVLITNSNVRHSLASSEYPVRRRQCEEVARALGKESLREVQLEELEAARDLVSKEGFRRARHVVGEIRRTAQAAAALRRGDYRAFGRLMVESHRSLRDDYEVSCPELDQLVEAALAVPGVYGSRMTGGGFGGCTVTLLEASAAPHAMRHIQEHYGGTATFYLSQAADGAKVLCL

With `CN(C)C(N)=NCCC[C@H](N)C(=O)O` the Potency [1] was “inactive”.

For `Nc1ncnc2c1ncn2[C@@H]1O[C@H](COP(=O)(O)CP(=O)(O)OP(=O)(O)O)[C@@H](O)[C@H]1O`, the Potency [2] was inconclusive: 37.9 µM [falling, partial curve, poor fit].

In the case of `COc1ccc(Cl)cc1C(=O)NCCc1ccc(S(=O)(=O)NC(=O)NC2CCCCC2)cc1`, the Potency [1] is reported as inconclusive: 11.6 µM [falling, partial curve] and the Potency [3] is reported as “inactive”.

With `CCCCC(CC)COC(=O)C(C#N)=C(c1ccccc1)c1ccccc1` (centres undefined) the Potency [4] was inconclusive: 31.6 µM [inhibitor, full curve].

With `NCCCNCCSP(=O)(O)O` the Potency [5] was “inactive” and the Potency [6] was “inactive”.

In the case of `CC(C)(C)NC[C@H](O)COc1nsnc1N1CCOCC1`, the Potency [7] is reported as “inactive” and the Potency [4] is reported as “inactive”.

In the case of `N.N.O=C(O)C1(C(=O)O)CCC1.[Pt+2]`, the Potency [5] is reported as inconclusive: 37.9 µM [inhibitor, single point].

For `NC(=O)C(=O)O`, the Potency [8] was “inactive”, the Potency [2] was “inactive” and the Potency [6] was “inactive”.

With `CNCC[C@H](Oc1ccc(C(F)(F)F)cc1)c1ccccc1` the Potency [2] was “inactive”.

In the case of `CCN(CC)CCOc1ccc(/C(=C(\Cl)c2ccccc2)c2ccccc2)cc1`, the Potency [4] is reported as inconclusive: 35.5 µM [inhibitor, partial curve, poor fit].

In the case of `Cc1cc(O)c2c(c1)C(=O)c1cc(O)cc(O)c1C2=O`, the Potency [7] is reported as “inactive” and the Potency [6] is reported as “inactive”.

In the case of `O=C1c2ccccc2C(=O)c2c1ccc(O)c2O`, the Potency [4] is reported as inconclusive: 50.1 µM [inhibitor, partial curve] and inconclusive: 63.1 µM [inhibitor, partial curve, poor fit].

With `NC(CO)C(=O)NNCc1ccc(O)c(O)c1O` (centres undefined) the Potency [9] was “inactive” and the Potency [6] was “inactive”.

In the case of `O=C(Nc1ccc([N+](=O)[O-])cc1Cl)c1cc(Cl)ccc1O`, the Potency [7] is reported as inconclusive: 1.46 µM [inhibitor, partial curve, poor fit], the Potency [1] is reported as inconclusive: 2.91 µM [cytotoxic, full curve] and the Potency [8] is reported as inconclusive: 2.06 µM [activator, partial curve]. The Potency [10] was inconclusive: 0.708 µM [cytotoxic, full curve].

For `CC(C)(C(=O)O)c1ccc(C(O)CCCN2CCC(C(O)(c3ccccc3)c3ccccc3)CC2)cc1` (centres undefined), the Potency [8] was “inactive”, the Potency [2] was “inactive” and the Potency [6] was “inactive”.

With `CCc1ccc(/C=C2/SC(=S)NC2=O)cc1` the Potency [7] was inconclusive: 23.1 µM [activator, single point] and the Potency [4] was inconclusive: 8.91 µM [inhibitor, partial curve, poor fit].

With `CCn1cc(C(=O)O)c(=O)c2cc(F)c(N3CCNC(C)C3)c(F)c21` (centres undefined) the Potency [2] was inconclusive: 10.7 µM [falling, partial curve, poor fit].

In the case of `CC(C(=O)O)c1cccc(C(=O)c2ccccc2)c1` (centres undefined), the Potency [11] is reported as “inactive”.

For `Cc1cccc(/C=C/c2ccccc2)n1`, the Potency [7] was inconclusive: 16.4 µM [activator, partial curve], the Potency [5] was inconclusive: 30.1 µM [inhibitor, partial curve] and the Potency [11] was inconclusive: 23.9 µM [inhibitor, single point].

With `NNc1nncc2ccccc12` the Potency [7] was inconclusive: 0.366 µM [activator, full curve].

In the case of `COc1ccc2nc(NC(=O)Nc3ccccc3)sc2c1`, the Potency [4] is reported as inconclusive: 0.631 µM [inhibitor, full curve, poor fit].

With `COC(=O)C(N)Cc1ccc(Cl)cc1` (centres undefined) the Potency [7] was inconclusive: 0.0058 µM [inhibitor, partial curve, poor fit] and the Potency [6] was “inactive”.

In the case of `NC(=O)c1ccccc1`, the Potency [7] is reported as “inactive”, the Potency [1] is reported as inconclusive: 25.9 µM [inhibitor, partial curve, poor fit] and the Potency [10] is reported as inconclusive: 3.16 µM [rising, partial curve, poor fit].

For `OC[C@H]1O[C@@H](n2cnc3c(NC4CCCCC4)ncnc32)[C@H](O)[C@@H]1O`, the Potency [7] was inconclusive: 2.06 µM [activator, full curve, poor fit] and the Potency [10] was “inactive”.

In the case of `Clc1ccc2nsnc2c1NC1=NCCN1`, the Potency [7] is reported as inconclusive: 1.16 µM [inhibitor, full curve].

In the case of `Cc1nn(-c2ccccc2)c(C)c1/C=N/N1CCN(Cc2ccccc2)CC1`, the Potency [7] is reported as inconclusive: 25.9 µM [inhibitor, single point] and the Potency [4] is reported as inconclusive: 0.1 µM [inhibitor, full curve, poor fit].

For `O=c1[nH]c(=O)c2nc3ccccc3nc2[nH]1`, the Potency [7] was inconclusive: 23.1 µM [activator, single point], the Potency [2] was inconclusive: 23.9 µM [fluorescent, side channel, partial curve] and the Potency [4] was inconclusive: 79.4 µM [inhibitor, partial curve, poor fit].

From PubChem BioAssay (NCATS)
